# Experimental data taken from PubChem BioAssay AID1347071 (National Center for Advancing Translational Sciences (NCATS), 2019).
# Among all 410,000 compounds or so, about 260 (0.063%) were called active. Inconclusive results, whose numbers are uncertain, are shown with a selection of clear calls. Calls come from the whole dose curve; as a rule, active = well fitted activation curve with a large enough effect; inconclusive = small, poorly fitted or top-dose-only effect; inactive = no such curve, though single readings can be large or run the other way. No potency is given beside an inconclusive call; the fits are too rough.
# Assay: qHTS for compounds that reverse cellular toxicity of Amyloid beta (A-beta) peptide in yeast: Primary Screen; note: nearly all actives have a fitted effect of over 55% in size
# Conditions: yeast expressing A-beta42, growth rescue, OD600, 48 h; growth rescue: at 46.1 µM (top of the series), 0% DMSO, 100% iron-clioquinol control
# Text: The A-beta peptide is produced by the processing of the amyloid precursor protein (APP) by two proteases, beta and gamma secretases. […] A-beta42 is regarded as the most amyloidogenic form due to its hydrophobicity; however, precisely how A-beta42 induces neurotoxicity is unclear. To understand further this biology and its potential therapeutic implications for human neurodegenerative disease, a quantitative high-throughput screen for compounds that reverse the cellular toxicity of the A-beta peptide was developed. A yeast based screen was used because it recapitulates the salient feature of protein mis-folding disorder accurately. This cell-based phenotypic screen provides a significant, unbiased advantage by letting the compounds and models inform us which proteins or pathways are most relevant. The ideal chemical candidates would therefore have activity in both our primary yeast and secondary neuronal toxicity assays, as well as in mouse models. They will be valuable tools for dissecting diverse protein homeostasis pathologies and could potentially become the focus for future pre-clinical development. For this luminescence assay, inhibition of A-beta rescues the toxic effect in the yeast cell, resulting in increase of signals and the desired phenotype of "Activator". This screen is run against the Molecular Libraries Small Molecule Repository (MLSMR) and the NCGC Sytravon Library Collection.
# NIH Chemical Genomics Center [NCGC]
# NIH Molecular Libraries Probe Centers Network [MLPCN]
# Assay Submitter (PI): Susan Lindquist, Whitehead Institute, Massachusetts Institute of Technology
# [1] Vassar R,et al (1999). Beta-secretase cleavage of Alzheimer's amyloid precursor protein by the transmembrane aspartic protease BACE. Science. 286: 735-741.
# [2] Yan R, et al (1999). Membrane-anchored aspartyl protease with Alzheimer's disease beta-secretase activity. Nature. 402: 533-536.
# Two and a half microliter / well of yeast growth medium were dispensed in a 1536 assay plate. Compounds were pinned using the Kalypsys robotic system followed by addition of 2.5 uL / well yeast solution. The assay plates were incubated at 30 C. After 48 hr, the absorbance signal at 600 nm was obtained using the PerkinElmer ViewLux plate reader to assess yeast growth. The data was normalized to the positive control of an equimolar mixture of ferric chloride (FeCl3) and clioquinol and to the negative control DMSO.
# Potency is the fitted concentration of half-maximal effect; tags give direction and shape of the fitted curve.
row,Structure (SMILES),Potency
1,COc1ccc(C2=NN(C(N)=S)C(c3ccccc3)C2)cc1 (stereo unspecified),"inconclusive [activator, single point]"
2,Cc1cc([N+](=O)[O-])nn1CC(=O)NC1CCCCC1,"inconclusive [activator, partial curve, poor fit]"
3,Cc1ccc(OCC(=O)Nc2ccncc2)c(C)c1,inactive
4,COCCNC(=S)N(CCc1c(C)[nH]c2ccc(Cl)cc12)Cc1cccs1,"inconclusive [activator, single point]"
5,COC(=O)c1ccccc1S(=O)(=O)N1CCC(C(=O)OCc2ccc([N+](=O)[O-])cc2)CC1,"inconclusive [activator, partial curve]"
6,COC(=O)C(=O)/C=C(\O)c1c(C)cc(C)cc1C,"inconclusive [activator, partial curve, poor fit]"
7,CC1Cc2ccccc2N1Cc1nc2cc(C(F)(F)F)ccc2c(=O)[nH]1 (stereo unspecified),"inconclusive [activator, partial curve, poor fit]"
8,COc1ccc(OCC(=O)N2CCCC2=O)c([N+](=O)[O-])c1,"inconclusive [activator, partial curve, poor fit]"
9,Cc1ccc(Cl)cc1NC(=O)c1oc2ccc(S(=O)(=O)N(C)C3CCCCC3)cc2c1C,inactive
10,COc1ccc(NS(=O)(=O)c2c(C)[nH]c(C)c2C(=O)N2CCCCC2)cc1Cl,"inconclusive [activator, single point]"
11,COc1ccc(-c2[nH]ncc2C=O)cc1,"inconclusive [activator, single point]"
12,CC(=O)CSc1nnc2cc(C)c3cc(C)cc(C)c3n12,inactive
13,COc1ccc(Cn2c(=S)[nH]c3ccccc32)cc1,active: 11.2 µM
14,COc1cccc(CN2CCN(S(=O)(=O)c3ccccc3)CC2)c1OC,"inconclusive [activator, partial curve]"
15,Cc1ccc(OC(=O)N2CCOCC2)cc1,"inconclusive [activator, full curve]"
16,CC(C)(C)c1ccc(C(=S)N2CCN(c3ccccc3)CC2)cc1,"inconclusive [activator, single point]"
17,O=C(NCCc1ccc(Cl)cc1)C(=O)NCC(c1ccco1)S(=O)(=O)c1ccc(Cl)cc1 (stereo unspecified),inactive
18,O=C1Nc2ccc(Cl)cc2C(C#CC2CC2)(C(F)(F)F)O1 (stereo unspecified),"inconclusive [activator, single point]"

row,Structure (SMILES),Potency
1,O=C(NCc1nc2ccccc2[nH]1)C1=C[C@H](C2CCCCC2)C[C@H](OCc2ccc(CO)cc2)O1,inactive
2,COc1cccc(C(=O)OCC(=O)c2c[nH]c3ccccc23)c1OC,"inconclusive [activator, single point]"
3,Cc1ccc(C2CN(C)C3(C(=O)Nc4ccccc43)C23COc2ccccc2C3=O)cc1 (stereo unspecified),inactive
4,CC(NC(=S)NC(=O)c1cccs1)c1ccccc1 (stereo unspecified),"inconclusive [activator, partial curve]"
5,CCCNC(=S)N1CCC(Cc2ccccc2)CC1,"inconclusive [activator, single point]"
6,COc1ccc(OC)c(CNC(=O)C2CCN(c3nc4ccccc4nc3C(F)(F)F)CC2)c1,inactive
7,Cc1cc(C2CC(=O)Nc3ccccc3S2)c(C)s1 (stereo unspecified),"inconclusive [activator, partial curve, poor fit]"
8,CC(C)(C)C1CCc2onc(C(=O)Nc3cccnc3)c2C1 (stereo unspecified),"inconclusive [activator, full curve, poor fit]"
9,N#Cc1ccccc1,"inconclusive [activator, single point]"
10,CCOc1ccc2oc(=O)cc(C)c2c1,"inconclusive [activator, single point]"
11,CC(=O)Nc1ccc(C23CC4CC(CC(C4)C2)C3)cc1,inactive
12,O=C(Nc1ncc(Cc2ccc(C(F)(F)F)cc2)s1)c1ccc(-c2cccc([N+](=O)[O-])c2)o1,"inconclusive [activator, partial curve, poor fit]"
13,Oc1ccccc1N1CCN(c2nnnn2-c2ccccc2)CC1,inactive
14,Cc1ccc(-n2nnc(-c3nc(-c4cccs4)no3)c2N)c(C)c1,inactive
15,CC(C)Cn1c(-c2ccc(Br)cc2)c[nH]c1=S,active: 3.16 µM
16,Cc1ccc(-n2nc3c(=O)n(CCCC(=O)NCc4ccc(C)o4)nc(C)c3c2C)cc1,"inconclusive [activator, single point]"
17,Cc1cnc(C(=O)OCC(=O)NC(=O)c2ccccc2)cn1,"inconclusive [activator, partial curve, poor fit]"
18,O=C1OCCN1C(=O)[C@H]1[C@H](c2ccc([N+](=O)[O-])cc2)C(c2cccc(Cl)c2)=NN1c1ccc(Br)cc1,"inconclusive [activator, single point]"
